Data taken from PMC12136788.
Some of the results follow.

B1: chr1:93866283:93869944:-|three_prime_utr|ENSG00000067334|control|control|control (ssRNA)
RNA: GGGAGUUCUACAGUCCGACGAUCUUUAUUUACUUAUUAAAGACGUUUGGAAAACUAACACCAUCAUCUAAAUUAAUUUACCAUAGACUGGCCCUGUUCAUACAGGAAUUUGUAUUUGGAAAAAGUUGAUUUGAGAAUCGAUUACAACAGAGGAUUGAGCAUCA
B2: chr6:52279506:52279615:-|CDS|ENSG00000112118|unk|total|mutant (ssRNA)
RNA: GGGAGUUCUACAGUCCGACGAUCUGAGUGUGGCAUUUUUAAGACAGGACGGAGAUCACUCUGUCCCUCUGUGUGCCUUUUUCCCGGAUGAGGAGAACAAUCCCCUUGAGACAGAAUAUGGCCUUUCUGUCUACAAGGAUCACCCAACAGAGGAUUGAGCAUCA
B3: chr8:133458587:133458688:-|3pUTR|ENSG00000008513|msi1|FALSE|unique (ssRNA)
RNA: GGGAGUUCUACAGUCCGACGAUCAUGAAACAAAAGCCCUUACUUGGGAAAAGGGACCCCCACCAGCGGCCCUGCUUGCUCCGUAGCUGGGAACAUCUUUUCUGGUUUCCUGAGCCAGCACCUGAAUUGCAACGAAGCUCUGAGCAACAGAGGAUUGAGCAUCA
B4: chr10:62807900:62808002:+|3pUTR|ENSG00000181915|unk|total|mutant (ssRNA)
RNA: GGGAGUUCUACAGUCCGACGAUCCAAAAAGUUGAUCCGCUUACCAAGAUUAUUAACCGCAAUGUAUGUGUUAUAAUACAACUCCGUACAUUAAAGCUACGAAAACUCAUCCUGGCUGCCGGACCGUAAUAAAGGAAGAAUUAUCAACAGAGGAUUGAGCAUCA
B5: chr17:64498535:64498649:-|3pUTR|ENSG00000108654|unk|FALSE|unique (ssRNA)
RNA: GGGAGUUCUACAGUCCGACGAUCUUAAACUGAGGCUUUAAUUGAUGUUAAUGCCUUAUGUCAAAUGUAAAGUUAGAAUUUGCUAGGGCUGGGAUAGGGAGUGAUAUUUCUAGGACUUAGACAUUGAAAACUAAUUCAGCCUGUCAACAGAGGAUUGAGCAUCA
B6: chr10:5457295:5457390:+|3pUTR|ENSG00000173848|msi1_unk|FALSE|overlapping (ssRNA)
RNA: GGGAGUUCUACAGUCCGACGAUCUCUGGAUUCAUCAUGGCUUUCUAAUACCAAUUGUAAUAUUUACAAUAUUCACCAAAACUUAGAAUUUUGCAAAUGCUGGAAUUCUGCCAGUGUUUCUUUGCUAAGCCUUGCAUGCAAAAUCAACAGAGGAUUGAGCAUCA
B7: ENSG00000198589:be:win_6801|CDS|ENSG00000198589|bound_else_gene|NA|bound_elsewhere_windowed (ssRNA)
RNA: GGGAGUUCUACAGUCCGACGAUCAAAAAGAGCAGCAUUCUUCGCUGAGCGUUAUGAAUCAUGGGAAGAUGAUCAAGUUCCAAAGUUUCACUAUGGUACUCAUUACUCAACUGCAAGUUUUGUUCUUGCAUGGCUGCUAAGAAUCAACAGAGGAUUGAGCAUCA
B8: chr15:57961136:57961294:-|CDS|ENSG00000128918|control|control|control (ssRNA)
RNA: GGGAGUUCUACAGUCCGACGAUCGAGAUUUAAGACGAUGGAUGAAGUUAUCGAAAGAGCCAAUAACUCAGACUUUGGACUCGUAGCAGCUGUCUUUACUAAUGACAUCAACAAGGCCCUCACAGUGUCUUCUGCAAUGCAAGCCAACAGAGGAUUGAGCAUCA
B9: chr5:138349049:138349150:+|3pUTR|ENSG00000120709|msi1|FALSE|unique (ssRNA)
RNA: GGGAGUUCUACAGUCCGACGAUCGAGAAGGUCUACAGUUAUCAUUAUUUUAAUUCCAUUACUUUCAGUCUGGAAAACUAAGCUAGUCAGAACUGUCAUCUUGCUUCCCAAUCUAAGAACCUGUGGCCCUGGAACACUUUUCAACAACAGAGGAUUGAGCAUCA
B10: chr6:49492913:49492980:+|3pUTR|ENSG00000031691|msi1_unk|total|mutant (ssRNA)
RNA: GGGAGUUCUACAGUCCGACGAUCUGUUGAAUAUUUUCUACUGUCAUCAAAACAUAUUCCCAAAAAGUAUUAAAAAGGAACCUCCGCACAUUUAUUUUAUUAAAACAAGAAAACCCAAAAUAUAUAAACCUUUUCUUAUUAUGACAACAGAGGAUUGAGCAUCA
B11: ENSG00000152661:stop:overlap|stop_codon|ENSG00000152661|stop_codon|NA|stop_codon (ssRNA)
RNA: GGGAGUUCUACAGUCCGACGAUCCUUCAAGCAGAGCCAGCAGUCGUGCCAGCAGCAGACCUCGGCCUGAUGACCUGGAGAUCUAGAUACAGGCUUGAAAGCAUCAAGAUUCCACUCAAUUGUGGAGAAGAAAAAAGGUGCUGUCAACAGAGGAUUGAGCAUCA
B12: chr22:31279490:31279591:+|3pUTR|ENSG00000182541|msi1|total|mutant (ssRNA)
RNA: GGGAGUUCUACAGUCCGACGAUCAGCAGCUUGGGCUGGGAAGAGGUGGUGGCAGAGUCUCAAAGCUGAGAUGCUGAGAGAGACCGCUCCCUGAGCUGGGCCAUCUGACUUCUACCUCCCAUGUUUGCUCUCCCAACUCAUCCGCAACAGAGGAUUGAGCAUCA
B13: chr1:77949188:77949289:-|CDS|ENSG00000162613|unk|FALSE|unique (ssRNA)
RNA: GGGAGUUCUACAGUCCGACGAUCUUCAAAGGUCAGGCAGUUCCUGCUCCGACUGGGGCUCCUCCAGGUGGUCAGCCAGAUUAUAGUGCAGCCUGGGCUGAGUAUUAUAGACAACAAGCAGCCUAUUAUGCCCAGACAAGUCCCCAACAGAGGAUUGAGCAUCA
B14: chr9:77717828:77717929:-|3pUTR|ENSG00000156052|unk|total|mutant (ssRNA)
RNA: GGGAGUUCUACAGUCCGACGAUCGUGCCUCAUAUCUGAAACAAAGGGAAAUAACACACCCAUUCAAAAGUAAAUAAAUCUCCCCGAAGUUUUUGUUUUUAACAUUUCCAUAUAAAGAGCUCUGUUGAAUGUCAUGAACCGACUCAACAGAGGAUUGAGCAUCA

molecular target: MSI1 full-length (mouse, UniProt Q61474 1-362); test: nsRBNS (natural sequence RNA bind-n-seq); RBNS binding buffer (assumed for nsRBNS): 25 mM Tris pH 7.5, 150 mM KCl, 3 mM MgCl2, 0.01% Triton X-100, 500 ug/ml BSA, 20 U/ml SUPERase-In, 4 C; UNK is unkempt and MSI1 is Musashi-1; names of the RNAs are library labels; protein concentration not given here; high values mean tight binding
Chain of UniProt Q61474 (Q61474 whole entry): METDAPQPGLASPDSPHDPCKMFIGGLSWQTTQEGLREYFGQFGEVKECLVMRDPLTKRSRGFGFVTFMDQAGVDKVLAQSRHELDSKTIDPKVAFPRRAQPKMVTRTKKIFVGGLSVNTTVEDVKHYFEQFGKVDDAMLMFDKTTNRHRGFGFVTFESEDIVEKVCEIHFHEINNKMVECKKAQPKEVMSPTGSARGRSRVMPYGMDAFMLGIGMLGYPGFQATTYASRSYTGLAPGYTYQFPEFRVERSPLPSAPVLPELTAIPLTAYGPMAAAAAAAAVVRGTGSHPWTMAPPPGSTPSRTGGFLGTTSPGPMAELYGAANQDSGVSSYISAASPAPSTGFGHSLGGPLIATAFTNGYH

Binder	binding signal [enrichment R]
B1	0.451
B2	0.235
B3	0.322
B4	0.286
B5	0.784
B6	0.302
B7	0.144
B8	0.377
B9	0.392
B10	1.81
B11	0.49
B12	0.431
B13	0.918
B14	0.447
